# Data taken from PubChem BioAssay AID463173 (ICCB-Longwood Screening Facility, Harvard Medical School, 2010).
# Hit rate of the full screen: of about 52,000 compounds, about 4,300 (8.3%) were called active. Rule as the data show it: active = survival mostly below about 52% (no sharp cut-off); inactive = mostly above about 56%. The list shows a part of the results.
# Tested on: DeltatarO mutant
# Test: growth inhibition of S. aureus wild type versus tarO mutant, primary screen, teichoic acid synthesis inhibitors, RN4220, OD600 (AID 463173)
# Settings: OD600, 18 h, hits give low values, screened at 18.75 µg/mL (by protocol)
row,Structure (SMILES),survival
1,Cc1cccc(-c2cc3nc4c(c(NCCN(C)C)n3n2)CCC4)c1,inactive: 116%
2,Cc1cc2nc(-c3ccc(OCc4ccccc4Cl)cc3)cc(C(F)(F)F)n2n1,active: 25%
3,Cc1ccc(NS(=O)(=O)c2ccc3c(c2)n(C)c(=O)n3C)cc1C,inactive: 67%
4,O=C1N(Cc2ccccc2)c2ccc(Cl)cc2C1(O)c1c[nH]c2ccccc12 (centres undefined),inactive: 66%
5,Fc1ccc(Nc2ncnc3onc(-c4cccc(Cl)c4)c23)c(F)c1,inactive: 84%
6,COc1cccc2c1cc1c(=O)n(CC(=O)N3CCN(c4ccc(Cl)cc4)CC3)nc(C)n12,inactive: 132%
7,Cc1ccc(S(=O)(=O)NC2(C(F)(F)F)NC(=O)N(CCc3ccccc3)C2=O)cc1 (centres undefined),inactive: 62%
8,C=CCn1c(SC(CCO)C(=O)NCc2ccco2)nc2sc3c(c2c1=O)CCC3 (centres undefined),inactive: 89%
9,CCc1cc2cc(C)cc(C)c2nc1Cl,inactive: 68%
10,CSc1nc2c(c(=O)[nH]1)C(c1cccc(F)c1F)CC(=O)N2 (centres undefined),inactive: 111%
11,NS(=O)(=O)c1ccc(CCNc2nccn(-c3cccc(C(F)(F)F)c3)c2=O)cc1,inactive: 102%
12,O=S(=O)(Nc1cc(F)ccc1F)c1ccc2[nH]c3c(c2c1)CCCC3,inactive: 84%
13,CC(C)(C)C(=O)Nc1ccc2nc(SCC(=O)N3CCOCC3)sc2c1,inactive: 81%
14,COc1cccc(CNn2cnnc2)c1O,inactive: 103%
15,CC(C)c1ccc(NC(=O)CS(=O)(=O)c2cccc3nsnc23)cc1,inactive: 78%
16,COc1cccc(CNC(=O)c2ccc3c(c2)c(C)c(C)n3Cc2ccccc2)c1OC,inactive: 94%
17,CCCCN(CCCC)CCNC(=O)Cn1nc(C)n2c(cc3sccc32)c1=O,inactive: 95%
18,CCOC(=O)c1cc2c(=O)n3ccccc3nc2n(C(C)C)c1=NC(=O)c1cc2ccccc2o1,active: 25%
19,COc1ccc(CNC(=O)CN2C(=O)COc3ccc(S(=O)(=O)Nc4ccccc4)cc32)cc1,inactive: 66%
20,O=C(c1ccccc1)n1nc(-c2ccccc2)nc1NCc1ccc(F)cc1,active: 12%
21,CCc1ccc(C(=O)c2cn(CC(=O)NC3CCCCC3)c3nc(C)ccc3c2=O)cc1,inactive: 80%
22,O=C(Nc1ccc(F)c(F)c1)c1cc(S(=O)(=O)NC2CCCCCC2)ccc1F,inactive: 54%
23,COc1ccc(-n2ccnc(NCc3ccccc3OC)c2=O)cc1,inactive: 89%

row,Structure (SMILES),survival
1,CCOc1ccc(N2CC(NC(=O)/C=C\c3ccc4c(c3)OCO4)CC2=O)cc1 (centres undefined),inactive: 79%
2,CNC(=O)c1c(NC(=O)c2ccc(S(=O)(=O)N3CCCCC3)cc2)sc2c1CCC2,active: 0%
3,CCc1ccc(Nc2nn(-c3ccc(OC(F)(F)F)cc3)nc2C(C)=O)cc1,inactive: 92%
4,Cc1ccc(-c2noc(CNS(=O)(=O)c3ccc(F)cc3)n2)cc1,inactive: 81%
5,COc1ccccc1N1CCN(C(=O)CN2C(=O)COc3ccc(S(=O)(=O)N4CCCCCC4)cc32)CC1,inactive: 75%
6,CCN(CC)c1ccc(NC(=O)c2cnc3c(-c4ccccc4)c(C)nn3c2C)c(C)c1,inactive: 89%
7,CCOC(=O)c1ccccc1NC(=O)CSc1ccc(-c2cccs2)nn1,inactive: 66%
8,Cc1ccc2occ(CC(=O)N(Cc3ccc(Cl)cc3)C3CCS(=O)(=O)C3)c2c1 (centres undefined),inactive: 64%
9,O=c1c2oc3ccccc3c2n(Cc2cccc(Cl)c2)c(=O)n1Cc1ccco1,inactive: 72%
10,CCC(=O)N1N=C2CCCCC2C1(O)C(F)(F)F (centres undefined),inactive: 93%
11,O=C(Cc1ccccc1)NC1CC(=O)N(c2ccccc2)C1 (centres undefined),inactive: 87%
12,CCOc1ccc(N(CC)S(=O)(=O)N2CCCC(C(=O)Nc3cc(Cl)ccc3C)C2)cc1 (centres undefined),inactive: 78%
13,O=C(Nc1cccc(OC(=O)c2ccco2)c1)c1ccccc1,inactive: 58%
14,CC(C)COc1ccc(C2=NC(c3ccncc3)=Nc3ccc(F)cc3N2)cc1,inactive: 113%
15,O=C(c1noc2c1CCCCC2)N1CCN(c2cccc(C(F)(F)F)c2)CC1,active: 0%
16,COc1ccccc1CNc1nc2ccc(Cl)cc2n2cnnc12,inactive: 114%
17,CC(C)c1ccc(NC(=O)c2cc(S(=O)(=O)N3CCCCC3)cn2C)cc1,inactive: 92%
18,CN1CCN(C(=O)Cn2c(-c3cccs3)cc3cc(Cl)ccc32)CC1,inactive: 99%
19,Cc1ccc(Cl)cc1N1CCN(C(=O)C2CCN(S(=O)(=O)c3cccc4nonc34)CC2)CC1,inactive: 94%
20,Cc1ccccc1OC(=O)CSc1nnc(-c2ccc3c(c2)OCO3)o1,inactive: 101%
21,Cc1cc2ccccc2n1CCNC(=O)c1cc(C(F)(F)F)cc(C(F)(F)F)c1,inactive: 125%
22,Cn1nnc2c(N3CCN(c4ccccc4)CC3)ncnc21,inactive: 74%
23,COCCn1c(SCC(=O)c2ccc(C)cc2C)nc2cc(C(=O)NC3CCCC3)ccc2c1=O,inactive: 126%

row,Structure (SMILES),survival
1,O=C(Cn1nc(N2CCN(c3ccccc3)CC2)ccc1=O)Nc1ccc(F)cc1F,inactive: 91%
2,C/C=C/C(=O)Nc1nc2ccc(OC)cc2s1,inactive: 81%
3,COc1ccc(CNC(=O)C2CCCN(C(=O)N3CCOc4ccccc43)C2)cc1 (centres undefined),inactive: 101%
4,COc1cc(C2SC[C@H]3C(=O)N(c4ccccc4)C(=O)N23)cc(OC)c1OC (some centres undefined),inactive: 75%
5,Cc1ccccc1-c1nc(CN2CCC(C(=O)NCCc3ccccc3)CC2)c(C)o1,inactive: 81%
6,O=C(CCCn1c(=O)c2ccccc2n(CC(=O)Nc2cccc(C(F)(F)F)c2)c1=O)NCc1ccc2c(c1)OCO2,inactive: 104%
7,CCN(CC)CCNC(=O)c1ccc(CSc2nc3ccncc3n2Cc2cccc(F)c2)cc1,inactive: 92%
8,CC(C)(C)c1ccc(C(=O)N2CCC(c3nc(-c4ccc(S(=O)(=O)N5CCCC5)cc4)no3)CC2)cc1,inactive: 79%
9,CCCCN(CC)CCCNC(=O)Cn1ncc2c3ccccc3n(Cc3ccccc3F)c2c1=O,inactive: 108%
10,CCOc1ccc(-c2cc3c(=O)n(Cc4nc(-c5ccc(OC(C)C)cc5)oc4C)ccn3n2)cc1Cl,inactive: 171%
11,CCOc1ccc(N2CC(NC(=O)c3ccc(S(=O)(=O)N4CCCC4)cc3)CC2=O)cc1 (centres undefined),inactive: 87%
12,Cc1ccc(Cl)cc1NC(=O)Nc1nnc(N2CCCC(C)C2)s1 (centres undefined),inactive: 72%
13,COc1ccccc1CNC(=O)CCNS(=O)(=O)c1ccc2c(c1)CCCC(=O)N2,inactive: 60%
14,CCOC(=O)c1c(C)[nH]c(C)c1S(=O)(=O)NCC(=O)NCc1ccc(C)cc1,inactive: 94%
15,CCN(CC)S(=O)(=O)c1ccc2c(c1)nc(CN(C)C(=O)Nc1ccc(Cl)cc1)n2C,inactive: 91%
16,COc1cccc(N2CCN(c3ncnc4c3c(-c3ccccc3)cn4-c3ccc(C)cc3)CC2)c1,inactive: 99%
17,O=C(NCc1cccn1Cc1ccccc1)Nc1ccc(Br)cc1F,inactive: 66%
18,O=C(Nc1ccccc1C(=O)OCc1cc(=O)n2ccsc2n1)c1ccc(Cl)cc1,inactive: 76%
19,O=C(COCc1cc(-c2ccc(F)cc2)on1)Nc1cccc(Cl)c1Cl,active: 46%
20,CCCc1cc(=O)[nH]c2nnc(SCC(=O)Nc3ccc(OC)cc3)n12,inactive: 90%
21,Cc1ccc(S(=O)(=O)c2nnn3c2nc(NC(C)c2ccccc2)c2sccc23)cc1 (centres undefined),inactive: 79%
22,CCOc1ccccc1C(=O)Nc1ccc(S(=O)(=O)Nc2onc(C)c2C)cc1,inactive: 77%
23,Cc1cc(=S)[nH]c2ccccc12,inactive: 105%

row,Structure (SMILES),survival
1,CCOc1cccc(C2c3[nH]c4ccccc4c3CCN2C(=O)c2ccccc2F)c1 (centres undefined),inactive: 84%
2,Cc1cccc(-c2nc3scc(CCNS(=O)(=O)c4c(C)noc4C)n3n2)c1,inactive: 96%
3,Cc1ccc(F)cc1NC(=O)CCc1c(C)nn(-c2ccc(N3CCCC3)nn2)c1C,inactive: 78%
4,CCCCC(=O)Oc1ccc2oc(-c3ccc(OC)cc3)cc(=O)c2c1,active: 30%
5,CCOC(=O)c1c(SCC(=O)Nc2nc3ccccc3s2)nc(=O)[nH]c1C,active: 6%
6,CCC(Sc1nnc(C)n2c1cc1sccc12)C(=O)Nc1ccccc1F (centres undefined),inactive: 71%
7,Cc1ccc(NC(=O)CSc2nc3ccc(NC(=O)c4cccs4)cc3s2)cc1,inactive: 81%
8,CCOc1cc(CNC(=O)c2ccc(Cn3c(=O)c4cccn4c4cccnc43)cc2)ccc1OC,active: 52%
9,O=C(Cn1c(=O)n(Cc2ccc(Cl)cc2)c(=O)c2cccnc21)Nc1ccccc1C(F)(F)F,inactive: 80%
10,Cc1ccc(NC(=O)CNC(=O)Cn2c(C)cc3ccccc3c2=O)cc1F,inactive: 65%
11,COCCNC(=O)c1c(-c2ccccc2)c(-c2ccccc2)nn(C)c1=O,inactive: 108%
12,Cc1ccc(-n2nc3c(=O)n(CCCC(=O)NCc4ccccc4C)nc(C)c3c2C)cc1,inactive: 120%
13,Cn1c(=O)oc2cc(S(=O)(=O)N3CCC(C(=O)NCc4ccccc4)CC3)ccc21,inactive: 101%
14,CCOC(=O)c1c(C)c(-c2ccccc2)n(CC(=O)NCc2cccc(OC)c2)c1C,inactive: 89%
15,CC(C)C(=O)c1cn(CC(=O)NCC2CCCO2)c2ccccc12 (centres undefined),inactive: 104%
16,Cc1ccc([N+](=O)[O-])cc1S(=O)(=O)N1CCn2cccc2C1c1ccccc1F (centres undefined),inactive: 76%
17,CCN(CC)c1cc2c(cc1F)c(=O)c(S(=O)(=O)c1ccccc1)cn2Cc1ccccc1,inactive: 77%
18,COc1ccc(CCNC(=O)NCc2noc3ccc(C)cc23)c(OC)c1,inactive: 62%
19,CCOC(=O)c1c(S(=O)(=O)NCC(=O)N2CCN(c3ccccc3OC)CC2)c(C)n(C)c1C,inactive: 77%
20,CC(=O)c1cccc(NS(=O)(=O)c2c(C)nc3sc(C)cn3c2=O)c1,inactive: 63%
